Data reported in patent publication US20240156864A1 (UNIVERSITY OF NORTH CAROLINA AT CHAPEL HILL, published 2024).

Target: T1, CAR19.BBζ (human, UniProt P01732 138-206; Q07011 214-255; P20963 in part)
T1 construct: Expressed in human T cells (or Jurkat cells) and pulled down from lysate; also called CAR.BBζ; CAR19.BBC
Experiment: co-IP with anti-CAR19 Ab from CAR-T cell lysate, LC-MS/MS
Experimental: For Immunoprecipitation (IP), assay, proteins from T cells were extracted in RIPA lysis buffer (Thermo Scientific) supplemented with 1×protease/phosphatase Inhibitors (Thermo Scientific). Equal amount of total proteins was used for IP. Rabbit/mouse IgG (Thermo Scientific) with protein G magnetic beads (Bio-Rad) was used to pre-clear the lysate and anti-CAR19, anti-HA or anti-FLAG Abs were incubated with lysate for 16 hours, and protein G beads were then used for the pull-down. IP products were dissolved in 2× SDS Laemmli buffer for Western blot analysis. […] 2× SDS Laemmli buffer without β-mercaptoethanol was used to dissolve the IP product, and β-mercaptoethanol was supplemented before western blot.
For mass spectrometry (MS) assays, immunoprecipitated samples (3 biological replicates) were subjected to SDS-PAGE and stained with Coomassie blue dye. Lanes for each sample were excised and the proteins were reduced, alkylated, and in-gel digested with trypsin overnight at 37° C. Peptides were extracted, desalted with C18 spin columns (Pierce) and dried via vacuum centrifugation. Peptide samples were stored at −80° C. until further analysis. The peptide samples were analyzed by liquid chromatography coupled to tandem mass spectrometry (LC-MS/MS) in 3 separated experiments using a Thermo Easy nLC 1000 coupled to a QExactive HF or a Waters nanoAcquity coupled to a Thermo LTQ-Orbitrap Velos. Samples were injected onto a PepMap C18 column (75 μm id×25 cm, 2 μm particle size) (Thermo Scientific) and separated over a 90 or 120 min gradient where mobile phase A was 0.1% formic acid in water and mobile phase B consisted of 0.1% formic acid in ACN. The LTQ-Orbitrap Velos was operated in data-dependent mode where the 10 most abundant precursors were selected for CID fragmentation (35% CE). The QExactive HF was operated in data-dependent mode where the 15 most intense precursors were selected for subsequent HCD fragmentation (27 NCE).

- Area: 4.48e+08
- Coverage: 34%
- Peptides (number identified): 13
B1: LCK (enzyme)
chain: not shown
notes: Endogenous protein from T cell lysate; also called lymphocyte-specific protein tyrosine kinase; LCK kinase
